These are yes or no findings as the source states them, for the method shown. In cells and extracts the contact can be indirect. Some entries that bind do so weakly or less than the wild type. For some of these results: Sequences can lack the tags named with a protein.
Experiments:
GFP‐tagged MAP1LC3A = GFP‐tagged MAP1LC3A (UniProt Q9H492); experiment: co-IP; GFP alone or GFP-tagged ATG8 proteins overexpressed in HEK293T; GFP-TRAP beads; blots for endogenous ATG2A, ATG2B, p62/SQSTM1, WIPI4
GFP‐tagged MAP1LC3C = GFP‐tagged MAP1LC3C (UniProt Q9BXW4); experiment: as above
GFP‐tagged WIPI4 (WDR45) = target: T1, GFP‐tagged WIPI4 (WDR45) (UniProt Q9Y484); experiment: co-IP; GFP alone, GFP-WIPI4 or GFP-WIPI4 with increasing concentrations of mCherry-GABARAP expressed in HEK293T for 24 h; GFP-TRAP beads; blots for endogenous ATG2A and ATG2B
T1 sequence: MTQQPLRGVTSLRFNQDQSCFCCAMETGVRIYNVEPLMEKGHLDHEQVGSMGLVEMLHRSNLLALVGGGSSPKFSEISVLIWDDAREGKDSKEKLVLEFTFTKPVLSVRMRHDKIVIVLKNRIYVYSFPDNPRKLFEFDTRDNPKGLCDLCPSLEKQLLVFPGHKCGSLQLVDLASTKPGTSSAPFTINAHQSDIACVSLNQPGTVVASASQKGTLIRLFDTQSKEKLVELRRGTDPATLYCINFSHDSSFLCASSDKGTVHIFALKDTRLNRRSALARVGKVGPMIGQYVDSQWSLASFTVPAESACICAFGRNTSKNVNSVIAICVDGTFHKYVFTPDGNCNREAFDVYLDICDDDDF

Chains of the proteins cited; added tags and fusions are not shown. Lines headed by an entry give the natural chain unless they say otherwise; changes in a name come on top. A line that says so, or that is headed by a name, gives the form on record, which may keep a tag or linker. Residues count along the entry.
UniProt Q9BXW4, residues 1-126: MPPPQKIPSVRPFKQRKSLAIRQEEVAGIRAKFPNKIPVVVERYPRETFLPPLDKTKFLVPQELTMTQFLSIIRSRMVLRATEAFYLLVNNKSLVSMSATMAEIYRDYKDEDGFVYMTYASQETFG
UniProt O95166: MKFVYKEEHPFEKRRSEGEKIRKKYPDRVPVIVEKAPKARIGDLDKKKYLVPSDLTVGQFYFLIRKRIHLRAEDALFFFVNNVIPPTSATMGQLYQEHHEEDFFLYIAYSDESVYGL
UniProt Q2TAZ0: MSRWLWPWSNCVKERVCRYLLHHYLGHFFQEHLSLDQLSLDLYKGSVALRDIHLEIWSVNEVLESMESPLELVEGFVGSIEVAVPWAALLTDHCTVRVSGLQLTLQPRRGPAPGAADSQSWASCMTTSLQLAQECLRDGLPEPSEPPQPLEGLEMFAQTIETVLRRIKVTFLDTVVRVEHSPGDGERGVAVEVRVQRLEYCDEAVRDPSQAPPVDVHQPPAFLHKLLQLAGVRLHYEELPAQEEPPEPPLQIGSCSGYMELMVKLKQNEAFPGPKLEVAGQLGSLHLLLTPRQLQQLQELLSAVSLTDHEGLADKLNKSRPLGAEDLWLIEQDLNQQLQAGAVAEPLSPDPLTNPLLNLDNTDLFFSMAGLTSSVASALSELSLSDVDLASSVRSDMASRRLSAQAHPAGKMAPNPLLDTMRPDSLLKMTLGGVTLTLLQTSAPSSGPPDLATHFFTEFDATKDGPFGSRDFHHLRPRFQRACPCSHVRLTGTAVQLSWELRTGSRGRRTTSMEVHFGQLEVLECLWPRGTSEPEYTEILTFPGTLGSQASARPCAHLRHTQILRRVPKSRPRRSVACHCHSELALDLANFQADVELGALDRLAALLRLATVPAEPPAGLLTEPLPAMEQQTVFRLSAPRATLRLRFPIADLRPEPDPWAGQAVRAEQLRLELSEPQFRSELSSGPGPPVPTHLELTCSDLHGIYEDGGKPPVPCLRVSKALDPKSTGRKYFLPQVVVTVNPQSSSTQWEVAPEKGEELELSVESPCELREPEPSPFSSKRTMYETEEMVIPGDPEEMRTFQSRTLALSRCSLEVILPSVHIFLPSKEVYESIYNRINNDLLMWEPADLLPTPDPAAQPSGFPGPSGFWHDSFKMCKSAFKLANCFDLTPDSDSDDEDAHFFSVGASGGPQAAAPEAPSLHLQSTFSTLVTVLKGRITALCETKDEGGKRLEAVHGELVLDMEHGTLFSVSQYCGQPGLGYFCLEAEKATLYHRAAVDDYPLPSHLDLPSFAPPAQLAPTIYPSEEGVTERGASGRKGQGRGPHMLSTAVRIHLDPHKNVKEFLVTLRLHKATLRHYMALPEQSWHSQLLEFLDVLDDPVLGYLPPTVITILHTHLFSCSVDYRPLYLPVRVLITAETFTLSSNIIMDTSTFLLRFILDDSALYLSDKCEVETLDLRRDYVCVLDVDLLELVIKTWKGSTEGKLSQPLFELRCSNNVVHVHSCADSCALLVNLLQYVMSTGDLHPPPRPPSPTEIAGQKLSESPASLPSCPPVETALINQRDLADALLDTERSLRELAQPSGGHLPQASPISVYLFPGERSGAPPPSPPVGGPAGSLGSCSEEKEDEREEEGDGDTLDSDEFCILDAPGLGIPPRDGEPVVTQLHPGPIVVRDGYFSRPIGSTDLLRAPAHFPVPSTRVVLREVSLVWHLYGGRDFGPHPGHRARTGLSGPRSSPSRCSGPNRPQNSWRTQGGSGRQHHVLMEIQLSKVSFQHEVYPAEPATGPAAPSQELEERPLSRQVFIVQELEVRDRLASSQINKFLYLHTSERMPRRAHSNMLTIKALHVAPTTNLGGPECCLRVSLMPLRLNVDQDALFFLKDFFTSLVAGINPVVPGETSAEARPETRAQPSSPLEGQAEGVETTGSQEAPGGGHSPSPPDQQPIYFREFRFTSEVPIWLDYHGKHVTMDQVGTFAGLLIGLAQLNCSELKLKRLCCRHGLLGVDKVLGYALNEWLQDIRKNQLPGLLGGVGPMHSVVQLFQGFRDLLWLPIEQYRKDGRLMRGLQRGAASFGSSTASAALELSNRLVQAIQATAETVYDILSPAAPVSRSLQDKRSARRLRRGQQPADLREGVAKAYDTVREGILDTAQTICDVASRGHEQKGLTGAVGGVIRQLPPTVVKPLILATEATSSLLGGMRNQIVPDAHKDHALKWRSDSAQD
HA‐tagged ATG2A‐mYFS (YFS/AAA) (Q2TAZ0-1, form named): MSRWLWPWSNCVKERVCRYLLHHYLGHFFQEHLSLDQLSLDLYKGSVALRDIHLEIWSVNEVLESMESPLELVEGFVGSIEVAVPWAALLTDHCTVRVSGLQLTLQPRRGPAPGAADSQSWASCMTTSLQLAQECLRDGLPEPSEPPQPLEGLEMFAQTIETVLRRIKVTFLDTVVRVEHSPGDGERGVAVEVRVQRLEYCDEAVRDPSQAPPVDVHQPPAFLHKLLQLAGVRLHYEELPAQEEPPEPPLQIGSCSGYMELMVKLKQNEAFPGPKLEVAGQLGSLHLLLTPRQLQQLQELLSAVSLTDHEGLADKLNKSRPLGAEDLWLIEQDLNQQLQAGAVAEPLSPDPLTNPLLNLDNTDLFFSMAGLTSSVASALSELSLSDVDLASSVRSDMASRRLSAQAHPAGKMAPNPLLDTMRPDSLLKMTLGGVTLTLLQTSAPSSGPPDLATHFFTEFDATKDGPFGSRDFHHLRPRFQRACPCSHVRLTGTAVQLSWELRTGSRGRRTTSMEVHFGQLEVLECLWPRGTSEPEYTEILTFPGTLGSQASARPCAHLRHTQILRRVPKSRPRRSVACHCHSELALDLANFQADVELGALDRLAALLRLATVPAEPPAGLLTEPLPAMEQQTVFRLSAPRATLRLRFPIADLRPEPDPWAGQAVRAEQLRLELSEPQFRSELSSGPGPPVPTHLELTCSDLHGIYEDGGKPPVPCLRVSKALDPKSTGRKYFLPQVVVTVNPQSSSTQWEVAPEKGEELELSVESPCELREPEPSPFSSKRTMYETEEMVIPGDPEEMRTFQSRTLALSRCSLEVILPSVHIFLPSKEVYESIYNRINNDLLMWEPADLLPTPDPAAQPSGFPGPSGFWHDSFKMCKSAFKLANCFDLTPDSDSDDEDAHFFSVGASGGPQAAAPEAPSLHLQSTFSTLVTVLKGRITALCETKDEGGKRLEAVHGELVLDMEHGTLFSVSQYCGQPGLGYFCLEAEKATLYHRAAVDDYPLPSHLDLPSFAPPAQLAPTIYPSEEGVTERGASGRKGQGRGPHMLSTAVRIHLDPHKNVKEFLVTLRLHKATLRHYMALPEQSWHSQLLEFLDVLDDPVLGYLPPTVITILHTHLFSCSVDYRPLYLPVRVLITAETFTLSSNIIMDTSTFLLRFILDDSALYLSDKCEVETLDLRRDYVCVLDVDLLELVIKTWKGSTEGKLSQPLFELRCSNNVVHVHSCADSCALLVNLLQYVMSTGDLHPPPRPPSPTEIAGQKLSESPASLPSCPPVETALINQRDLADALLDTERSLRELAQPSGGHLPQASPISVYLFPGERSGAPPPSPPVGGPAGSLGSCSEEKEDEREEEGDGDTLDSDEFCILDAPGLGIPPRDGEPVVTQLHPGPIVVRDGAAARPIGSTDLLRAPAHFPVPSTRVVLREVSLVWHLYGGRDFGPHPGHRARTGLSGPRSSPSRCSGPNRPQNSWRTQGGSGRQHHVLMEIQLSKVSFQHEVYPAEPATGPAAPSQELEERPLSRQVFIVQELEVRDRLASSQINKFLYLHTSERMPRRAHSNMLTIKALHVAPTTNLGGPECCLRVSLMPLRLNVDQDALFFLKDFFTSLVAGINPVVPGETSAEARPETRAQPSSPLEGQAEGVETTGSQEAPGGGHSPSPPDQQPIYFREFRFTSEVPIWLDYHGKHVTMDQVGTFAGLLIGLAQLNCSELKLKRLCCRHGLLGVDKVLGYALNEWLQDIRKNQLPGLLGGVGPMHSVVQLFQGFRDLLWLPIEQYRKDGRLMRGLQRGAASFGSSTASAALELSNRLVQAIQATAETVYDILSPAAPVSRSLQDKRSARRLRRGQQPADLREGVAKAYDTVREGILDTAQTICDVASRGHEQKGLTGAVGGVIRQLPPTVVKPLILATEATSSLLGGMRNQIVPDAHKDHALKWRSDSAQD
Myc‐tagged ATG2A‐mutant LIR #5 (mLIR; FCIL/AAAA) (Q2TAZ0-1, form named): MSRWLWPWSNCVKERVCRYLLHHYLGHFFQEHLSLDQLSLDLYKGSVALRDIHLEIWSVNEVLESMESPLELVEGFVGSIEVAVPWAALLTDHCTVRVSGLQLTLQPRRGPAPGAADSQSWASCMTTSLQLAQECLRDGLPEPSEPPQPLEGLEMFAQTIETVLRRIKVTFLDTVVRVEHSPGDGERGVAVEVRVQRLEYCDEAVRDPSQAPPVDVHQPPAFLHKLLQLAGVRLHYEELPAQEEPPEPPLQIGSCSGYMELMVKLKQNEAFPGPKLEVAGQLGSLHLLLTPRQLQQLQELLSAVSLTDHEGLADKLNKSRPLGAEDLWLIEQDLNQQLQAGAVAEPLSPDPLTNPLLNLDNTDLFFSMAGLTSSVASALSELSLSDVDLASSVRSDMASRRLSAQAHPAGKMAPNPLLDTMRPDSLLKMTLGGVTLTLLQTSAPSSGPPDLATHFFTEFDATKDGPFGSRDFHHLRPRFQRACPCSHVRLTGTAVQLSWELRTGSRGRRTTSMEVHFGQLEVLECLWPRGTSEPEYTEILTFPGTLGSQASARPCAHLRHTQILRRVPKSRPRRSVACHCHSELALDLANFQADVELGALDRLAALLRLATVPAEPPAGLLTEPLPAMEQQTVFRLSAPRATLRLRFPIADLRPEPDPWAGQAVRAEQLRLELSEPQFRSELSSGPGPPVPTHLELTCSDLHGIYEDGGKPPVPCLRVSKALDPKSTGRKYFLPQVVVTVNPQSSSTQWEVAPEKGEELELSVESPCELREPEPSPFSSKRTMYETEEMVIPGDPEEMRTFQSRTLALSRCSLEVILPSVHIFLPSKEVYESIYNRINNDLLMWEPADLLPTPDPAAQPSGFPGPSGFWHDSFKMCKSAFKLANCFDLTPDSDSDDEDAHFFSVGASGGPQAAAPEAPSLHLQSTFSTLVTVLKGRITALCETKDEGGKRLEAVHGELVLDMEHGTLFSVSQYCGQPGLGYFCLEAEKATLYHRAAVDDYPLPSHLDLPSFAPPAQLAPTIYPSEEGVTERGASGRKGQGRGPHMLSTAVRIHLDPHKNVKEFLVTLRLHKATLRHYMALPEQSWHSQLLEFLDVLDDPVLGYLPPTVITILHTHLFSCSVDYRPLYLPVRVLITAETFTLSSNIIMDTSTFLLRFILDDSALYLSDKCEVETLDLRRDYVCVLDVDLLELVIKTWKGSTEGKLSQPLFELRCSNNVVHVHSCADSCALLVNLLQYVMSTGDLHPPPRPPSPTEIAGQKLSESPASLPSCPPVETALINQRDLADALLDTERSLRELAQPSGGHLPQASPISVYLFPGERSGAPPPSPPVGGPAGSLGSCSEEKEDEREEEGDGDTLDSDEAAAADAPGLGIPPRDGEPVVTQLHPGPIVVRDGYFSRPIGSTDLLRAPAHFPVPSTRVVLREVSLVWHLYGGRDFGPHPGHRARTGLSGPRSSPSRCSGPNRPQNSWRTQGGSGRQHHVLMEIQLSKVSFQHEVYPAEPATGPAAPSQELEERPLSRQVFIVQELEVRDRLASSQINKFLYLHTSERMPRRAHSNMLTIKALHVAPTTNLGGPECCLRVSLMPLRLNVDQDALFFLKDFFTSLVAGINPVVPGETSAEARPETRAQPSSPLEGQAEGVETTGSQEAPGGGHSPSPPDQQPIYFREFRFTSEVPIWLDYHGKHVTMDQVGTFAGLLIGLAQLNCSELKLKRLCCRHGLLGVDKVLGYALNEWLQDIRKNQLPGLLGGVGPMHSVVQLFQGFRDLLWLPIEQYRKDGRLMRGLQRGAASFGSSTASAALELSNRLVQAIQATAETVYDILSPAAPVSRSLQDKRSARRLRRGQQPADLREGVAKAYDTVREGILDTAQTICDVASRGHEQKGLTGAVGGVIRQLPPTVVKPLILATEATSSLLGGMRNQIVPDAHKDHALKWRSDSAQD

[1] = target: GFP‐tagged GABARAP (in HEK293T cells) (UniProt O95166); experiment: co-IP; GFP alone, GFP-GABARAP or GFP-GABARAP with increasing concentrations of mCherry-WIPI4 expressed in HEK293T for 24 h; GFP-TRAP beads; blots for endogenous ATG2A and ATG2B
[2] = target: GFP‐tagged GABARAP (in HEK293T cells) (UniProt O95166); experiment: co-IP; GFP alone or GFP-tagged ATG8 proteins overexpressed in HEK293T; GFP-TRAP beads; blots for endogenous ATG2A, ATG2B, p62/SQSTM1, WIPI4
[3] = target: HA‐tagged ATG2A‐mYFS (YFS/AAA) (human) (UniProt Q2TAZ0); experiment: co-IP; U2OS ATG2A/B DKO cells stably expressing HA-ATG2A WT, mLIR or mYFS, transfected with GFP-GABARAP, complete medium or starved 2 h (EBSS); anti-HA beads; blots for WIPI4 and GFP
[4] = target: HA‐tagged ATG2A‐mLIR (FCIL/AAAA) (human) (UniProt Q2TAZ0); experiment: as above
[5] = target: GFP‐tagged GABARAP (in HEK293T cells) (UniProt O95166); experiment: co-IP; Myc-ATG2A or Myc-ATG2B (WT or mLIR) co-expressed with GFP alone, GFP-LC3B or GFP-GABARAP in HEK293T; anti-GFP nanobody agarose; anti-Myc blot

Substance	binding (GFP‐tagged MAP1LC3A)	binding (GFP‐tagged MAP1LC3C)	binding (GFP‐tagged WIPI4 (WDR45))	binding [5]	further results
ATG2A, endogenous in HEK293T cells (from UniProt Q2TAZ0-1 1-1938)	binds weakly	no binding	binds	–	–
ATG2B, endogenous in HEK293T cells (from UniProt Q96BY7 1-2078)	binds weakly	no binding	binds	–	binding [1]: binds; binding [2]: binds
GFP‐tagged GABARAP (in U2OS ATG2A/B double‐knockout cells) (from UniProt O95166 1-117)	–	–	–	–	binding [3]: binds; binding [4]: no binding
Myc‐tagged ATG2A‐mutant LIR #5 (mLIR; FCIL/AAAA) (from UniProt Q2TAZ0-1 1-1938)	–	–	–	no binding	–
Myc‐tagged ATG2B wild type (from UniProt Q96BY7 1-2078)	–	–	–	binds	–
Myc‐tagged ATG2B‐mLIR (LIR#6; FCIL/AAAA) (from UniProt Q96BY7 1-2078)	–	–	–	no binding	–

Source: article PMC7054675
